The record followed here is PMC3391236.

Amino acid sequences for entries named in this document (tags omitted). A change or cut given only in a name is not applied to a line headed by its entry. Residues count along the entry.
UniProt P12980: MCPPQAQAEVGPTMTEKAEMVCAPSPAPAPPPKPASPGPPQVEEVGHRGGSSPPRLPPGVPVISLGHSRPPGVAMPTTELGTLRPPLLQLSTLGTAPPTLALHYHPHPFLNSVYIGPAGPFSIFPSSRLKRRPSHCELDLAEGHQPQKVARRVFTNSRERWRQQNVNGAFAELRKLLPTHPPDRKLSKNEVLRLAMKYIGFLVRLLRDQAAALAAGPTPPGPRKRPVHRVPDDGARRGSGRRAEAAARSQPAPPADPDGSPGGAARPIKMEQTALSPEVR
GST-LYL1 bHLH: residues 114-221 of P12980

Where two headings read alike, the source gives them in different places. No constants are given. Whether binding was seen depends on the method and setting. In cells and extracts the contact can be indirect. Some binding calls cover weakened binding; strength is not graded here.

One assay concerns the target TAL1 (human) (UniProt P17542). Description: co-IP; 293T cells cotransfected with expression vectors (TAL1, Flag- or HA-LYL1, E47, HA-LMO2, GATA2 in combinations); lysis in 10 mM Tris-HCl pH 7.5, 150 mM NaCl, 0.1% Triton X100; 600 ug whole cell extract with anti-TAL1 mAb on GammaBind G sepharose, anti-Flag-M2 affinity gel or anti-HA agarose, 4 h at 4°C; washed with NET-2 buffer; immunoblot.

Assay [1] concerns the target LYL1 tagged with Flag or HA (human) (UniProt P12980). Described as above.
A further assay deals with GST-LYL1 bHLH (human) (UniProt P12980). Description: pull-down; bacterially expressed GST fusion proteins (bHLH domains) on glutathione-Sepharose beads incubated with [35S]-methionine-labeled in vitro-translated TAL1 or LYL1; SDS-PAGE and autoradiography; only the target purified.
In a further assay the target is GST-TAL1 bHLH (human) (UniProt P17542). The description is as above.
The target of assay [2] is LYL1 tagged with Flag or HA (human) (UniProt P12980). The experiment in a line: co-IP; 293T cells cotransfected with expression vectors (TAL1, Flag- or HA-LYL1, E47, HA-LMO2, GATA2 in combinations); lysis in 10 mM Tris-HCl pH 7.5, 150 mM NaCl, 0.1% Triton X100; 600 ug whole cell extract with anti-TAL1 mAb on GammaBind G sepharose, anti-Flag-M2 affinity gel or anti-HA agarose, 4 h at 4°C; washed with NET-2 buffer; immunoblot. The source holds these as a separate data set. In general terms: In western blotting, separated proteins are transferred to a membrane and probed.

In the case of “LYL1 tagged with Flag or HA (from UniProt P12980 1-280)”, the binding result (with TAL1 (human); in assay [1]) was “binds” in each case.
As to TAL1 (from UniProt P17542 1-331), the binding result in assay [1] is on record as “binds”.
Regarding “in vitro-translated LYL1 (from UniProt P12980 1-280)”, the figures for the binding result with GST-LYL1 bHLH (human) and with GST-TAL1 bHLH (human) were “binds” and “no binding”, respectively.
As to “in vitro-translated TAL1 (from UniProt P17542 1-331)”, the binding result with GST-LYL1 bHLH (human) and with GST-TAL1 bHLH (human) was “no binding” throughout.

B1: E47 (protein, UniProt P15923-2 1-651)
chain: MNQPQRMAPVGTDKELSDLLDFSMMFPLPVTNGKGRPASLAGAQFGGSGLEDRPSSGSWGSGDQSSSSFDPSRTFSEGTHFTESHSSLSSSTFLGPGLGGKSGERGAYASFGRDAGVGGLTQAGFLSGELALNSPGPLSPSGMKGTSQYYPSYSGSSRRRAADGSLDTQPKKVRKVPPGLPSSVYPPSSGEDYGRDATAYPSAKTPSSTYPAPFYVADGSLHPSAELWSPPGQAGFGPMLGGGSSPLPLPPGSGPVGSSGSSSTFGGLHQHERMGYQLHGAEVNGGLPSASSFSSAPGATYGGVSSHTPPVSGADSLLGSRGTTAGSSGDALGKALASIYSPDHSSNNFSSSPSTPVGSPQGLAGTSQWPRAGAPGALSPSYDGGLHGLQSKIEDHLDEAIHVLRSHAVGTAGDMHTLLPGHGALASGFTGPMSLGGRHAGLVGGSHPEDGLAGSTSLMHNHAALPSQPGTLPDLSRPPDSYSGLGRAGATAAASEIKREEKEDEENTSAADHSEEEKKELKAPRARTSSTDEVLSLEEKDLRDRERRMANNARERVRVRDINEAFRELGRMCQMHLKSDKAQTKLLILQQAVQVILGLEQQVRERNLNPKAACLKRREEEKVSGVVGDPQMVLSAPHPGLSEAHNPAGHM
Take B1: the binding entry in assay [2] is on record as “binds weakly”.
